# Among all 330,000 compounds or so, about 80 (0.02%) were called active. Inconclusive results, whose numbers are uncertain, are shown with a selection of clear calls. Calls follow the shape of the dose curve; as a rule, active = well fitted activation curve with a large enough effect; inconclusive = small, poorly fitted or top-dose-only effect; inactive = flat fitted curve, though single readings scatter. Potencies of inconclusive entries are left out as doubtful fits.
# Target: Beta-2 adrenergic receptor (Homo sapiens) (UniProt P07550)
# Sequence of UniProt P07550 (P07550 whole entry, looked up): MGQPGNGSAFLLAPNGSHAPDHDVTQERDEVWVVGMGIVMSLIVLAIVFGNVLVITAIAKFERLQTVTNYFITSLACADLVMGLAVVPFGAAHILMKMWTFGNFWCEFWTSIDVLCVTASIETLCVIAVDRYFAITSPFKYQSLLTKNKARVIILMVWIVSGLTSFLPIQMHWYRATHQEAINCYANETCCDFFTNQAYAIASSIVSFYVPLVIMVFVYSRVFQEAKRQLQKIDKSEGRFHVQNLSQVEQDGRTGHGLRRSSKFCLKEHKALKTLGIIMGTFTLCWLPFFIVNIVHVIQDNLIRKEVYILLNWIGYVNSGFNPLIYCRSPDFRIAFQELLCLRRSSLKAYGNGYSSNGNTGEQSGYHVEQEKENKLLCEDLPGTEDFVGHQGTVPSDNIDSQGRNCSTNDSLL
# Test: qHTS assay of beta-arrestin-biased ligands of beta2-adrenergic receptor; also: nearly all actives have a fitted effect of over 65% in size
# Conditions: beta-arrestin recruitment to beta2AR, cell-based reporter; series mostly up to 46.1 µM
# Summary of the method: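 Agonist activity is measured as luciferase luminescence downstream of beta-arrestin recruitment to recombinant beta2-AR in Tango cells. Exposure lasts 18 hr at 37 degrees C, and curves are categorized by r2, response size and activity.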
# Potency is read from the fitted curve at half-maximal effect; tags tell the direction and shape of the fitted curve.
row,SMILES,Potency
1,CCn1c(=O)c(C(=O)NNC(=O)c2ccc(Cl)cc2Cl)c(O)c2ccccc21,inactive
2,C[C@@H](C(=O)NCc1ccc(S(C)(=O)=O)cc1)[C@H]1C[C@]1(C)[C@H](NC(=O)OCc1ccccc1)c1ccccc1,inactive
3,COc1cc(CN2CCCCC2)ccc1OCc1ccccc1,inactive
4,CCN1C(=O)C(CC(=O)Nc2ccc(OC)cc2)N(CCN2CCOCC2)C1=S (stereo not given),"inconclusive [rising, single point]"
5,CCC(Sc1nc2n[nH]c(C)c2c(=N)n1-c1ccc(C)c(Cl)c1)C(=O)N1CCOCC1 (stereo not given),"inconclusive [rising, single point]"
6,CCCNC(=O)Cn1cnc2sc(C(=O)Nc3ccc4c(c3)OCO4)c(C)c2c1=O,"inconclusive [rising, single point]"
7,COc1ccc(NC(=S)Nc2ccccn2)c(OC)c1,"inconclusive [rising, single point]"
8,CC1=NN(c2cccc([N+](=O)[O-])c2)C(=O)C1,inactive
9,O=C(NC(=S)Nc1cccnc1Cl)c1ccc(Cl)cc1,"inconclusive [rising, single point]"
10,COc1ccc(CCn2c(N)c(C(=O)NCc3ccco3)c3nc4ccccc4nc32)cc1,"inconclusive [rising, single point]"
11,O=C(Oc1c(CN2CCOCC2)cc(Cl)c2cccnc12)c1ccccc1,"inconclusive [rising, single point]"
12,COc1ccc(NC(=O)/C(Cl)=C(/Cl)S(=O)Cc2ccccc2)cn1 (stereo not given),"inconclusive [rising, single point]"
13,O=C(C#Cc1ccccc1)c1ccco1,inactive
14,Cc1ccc(N/C=C/C(=O)c2ccccc2)cc1C,"inconclusive [rising, single point]"
15,COc1ccc(C[C@H]2CN3C(=NC[C@@H]3Cc3ccc(O)cc3)N2C[C@H](C)NC(=O)CCC2CCCCC2)cc1,"inconclusive [activator, partial curve]"
16,Cc1noc(C)c1C(=O)N(CC(=O)Nc1ccccc1Br)Cc1ccco1,"inconclusive [rising, single point]"
17,COC(=O)c1ccc(C(=O)OC)c(NC(=O)CSc2cccc[n+]2[O-])c1,active: 5.01 µM
18,Cc1cc(Cl)ccc1NC(=O)C1CCN(S(C)(=O)=O)CC1,inactive
19,Cc1ccc(CNS(=O)(=O)c2ccc3c(c2)OCCO3)cc1,"inconclusive [rising, single point]"
20,CN(C)c1ccc(/C=N/NC(=S)NCc2ccccc2)cc1,inactive
